Among all 410,000 compounds or so, about 6,400 (1.6%) were called active. The shares of active, inactive and inconclusive entries below differ from those in the screen. Calls follow the shape of the dose curve; as a rule, active = well fitted inhibition curve with a large enough effect; inconclusive = small, poorly fitted or top-dose-only effect; inactive = no such curve, though single readings can be large or run the other way. Potencies of inconclusive entries are left out as doubtful fits.
target: Glucagon-like peptide 1 receptor (Homo sapiens) (UniProt P43220); assay: qHTS of GLP-1 Receptor Inverse Agonists (Inhibition Mode); settings: HEK293 GLP-1R CRE-luciferase, luminescence, 24 h, GLP-1R form is constitutively active; series mostly up to 38.3 µM; also: nearly all actives have a fitted effect of over 55% in size
How it was run: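 GLP-1R inverse agonism mode: basal reporter luminescence in engineered HEK293 cells measured after one day of compound exposure at 37 deg C, with a 12 min room-temperature detection step.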
Potency is read from the fitted curve at half-maximal effect; tags tell the direction and shape of the fitted curve.

Sequence of UniProt P43220 (P43220 whole entry, looked up): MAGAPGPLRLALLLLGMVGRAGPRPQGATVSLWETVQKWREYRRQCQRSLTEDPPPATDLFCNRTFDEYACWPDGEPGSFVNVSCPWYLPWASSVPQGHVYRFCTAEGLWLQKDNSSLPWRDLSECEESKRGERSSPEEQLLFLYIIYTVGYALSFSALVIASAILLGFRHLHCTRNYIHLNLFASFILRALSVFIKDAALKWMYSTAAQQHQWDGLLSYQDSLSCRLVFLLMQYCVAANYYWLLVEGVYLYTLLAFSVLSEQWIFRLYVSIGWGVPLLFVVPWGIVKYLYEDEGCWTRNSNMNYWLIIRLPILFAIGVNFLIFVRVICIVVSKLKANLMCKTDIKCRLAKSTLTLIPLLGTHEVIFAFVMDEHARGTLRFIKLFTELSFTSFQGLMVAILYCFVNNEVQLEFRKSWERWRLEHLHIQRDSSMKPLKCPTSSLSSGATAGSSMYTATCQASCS

Row | SMILES | Potency
1 | COc1ccc(C(=O)C2CCCN(S(=O)(=O)c3cccnc3)C2)c(C)c1 (configuration not stated) | inconclusive [inhibitor, single point]
2 | Cc1nc2scc(C)n2c(=O)c1S(=O)(=O)NCC1CCN(Cc2ccc(Cl)cc2)CC1 | inconclusive [inhibitor, full curve, poor fit]
3 | FC(F)(F)c1cccc(-c2cc3nc(NCCOc4ccccc4)ccn3n2)c1 | inconclusive [inhibitor, single point]
4 | CC(NC(=S)Nc1cccc(F)c1)C(c1cccs1)N1CCOCC1 (configuration not stated) | inconclusive [inhibitor, partial curve]
5 | O=C(Nc1cc(F)ccc1F)c1ccc2c(c1)nnn2C1CCCC1 | inactive
6 | COc1cccc(-c2cc(NC=O)c3ncc(-c4ccc(OC)c(OC)c4)n3c2)c1 | inconclusive [inhibitor, partial curve, poor fit]
7 | CN(CC(=O)NCc1ccc2c(c1)OCO2)S(=O)(=O)c1ccc(Br)s1 | inconclusive [inhibitor, single point]
8 | Cc1ccc(S(=O)(=O)N(CC(=O)N2CCc3ccccc3C2)c2ccc(C)c(C)c2)cc1 | active: 11.2 µM
9 | COCCOc1ccc(C(F)(F)F)cc1Nc1nc2ccccc2o1 | inconclusive [inhibitor, partial curve, poor fit]
10 | COc1ccc(C(=O)NCCN2CCCC2)cc1 | inactive
11 | Cc1nc([N+](=O)[O-])c(Br)n1CC(=O)c1cccc([N+](=O)[O-])c1 | inconclusive [inhibitor, partial curve, poor fit]
12 | Cc1ccc(-n2c3nc(=O)[nH]c(=O)c-3cc3cc([N+](=O)[O-])ccc32)cc1C | active: 10 µM
13 | O=C(Nc1noc2ccccc12)c1c(F)cccc1F | inconclusive [inhibitor, single point]
14 | CCOC(=O)c1c(C)c(-c2ccccc2)n(CC(=O)Nc2cccc(F)c2)c1C | inconclusive [inhibitor, single point]
15 | O=C1CCN(CCc2ccccc2)CCN1[C@H](COc1ccccc1)c1ccccc1 | inconclusive [inhibitor, single point]
16 | COc1ccc(N2CC(C(=O)N/N=C/c3ccc(C)cc3)CC2=O)cc1 (configuration not stated) | inconclusive [inhibitor, full curve, poor fit]
17 | CCCC(=O)N(CCN1CCOCC1)c1nc2c(C)ccc(C)c2s1 | inconclusive [inhibitor, partial curve, poor fit]
18 | OC(c1ccccc1)(c1ccccc1)C1CCN(C(=S)NC2CCCC2)CC1 | inconclusive [inhibitor, partial curve, poor fit]
19 | CCCCN(C(=O)CCCc1nc2ccccc2s1)c1c(N)n(CC(C)C)c(=O)[nH]c1=O | inactive
20 | CCCc1cc(=O)n2[nH]c(-c3ccccc3)cc2n1 | inactive
21 | COc1ccc(NS(=O)(=O)c2ccc(NC(=O)CCNS(=O)(=O)c3ccc(C)cc3)cc2)cc1 | inconclusive [inhibitor, partial curve, poor fit]

Row | SMILES | Potency
22 | CNC(=S)N/N=C(\C)c1ccc(N2CCOCC2)cc1 | inconclusive [inhibitor, single point]
23 | CC1CCCCC1NC(=O)COC(=O)c1cccn1C (configuration not stated) | inconclusive [inhibitor, partial curve, poor fit]
24 | CCOC(=O)c1cnc2c(C)cc(C)cc2c1NCCCN1CCOCC1 | inconclusive [inhibitor, single point]
25 | Cc1ccc(C)c(OCC(=O)N2CCc3ccccc3C2)c1 | inconclusive [inhibitor, single point]
26 | CCOc1ccc(N)c(SSc2cc(OCC)ccc2N)c1 | inconclusive [inhibitor, full curve, poor fit]
27 | COCc1nnc(NC(=O)c2ccc(S(=O)(=O)N(CC(C)C)CC(C)C)cc2)o1 | inconclusive [inhibitor, single point]
28 | O=C1NC(c2cccs2)Nc2ccccc21 (configuration not stated) | inactive
29 | O=C(CN1C(=O)NC(Cc2c[nH]c3ccccc23)C1=O)Nc1ccc(Br)cc1F (configuration not stated) | inconclusive [inhibitor, partial curve, poor fit]
30 | O=C(NC(NC(=S)Nc1ccccc1C(=O)O)C(Cl)(Cl)Cl)c1cccc([N+](=O)[O-])c1 (configuration not stated) | inactive
31 | O=C(Nc1cccc(C(=O)Nc2cccc(Br)c2)c1)c1ccccc1 | inconclusive [inhibitor, partial curve, poor fit]
32 | Cc1ccc([N+](=O)[O-])cc1N=C(c1cccc(Br)c1)N1CCOCC1 | active: 7.94 µM
33 | CCCC(C(=O)O)N1C(=O)/C(=C2\C(=O)N(C)c3ccccc32)SC1=S (configuration not stated) | inconclusive [inhibitor, partial curve, poor fit]
34 | O=C(Nc1ccccc1-c1nc2ccccc2[nH]1)c1ccc(N2C(=O)CCC2=O)cc1 | inconclusive [inhibitor, partial curve, poor fit]
35 | CC(=O)c1ccc(N2CCN(c3ncccn3)CC2)cc1 | inactive
36 | Cc1ccc(CSc2oc(-c3ccco3)nc2S(=O)(=O)c2ccc(Br)cc2)cc1 | inconclusive [inhibitor, partial curve, poor fit]
37 | O=C(CN1CCN(c2ccc(Cl)cc2)CC1)Nc1ccc(Cl)c(C(F)(F)F)c1 | inconclusive [inhibitor, single point]
38 | Cc1cc(C(=O)N/N=C\c2ccc(COc3ccc([N+](=O)[O-])cc3)o2)ccc1[N+](=O)[O-] | inactive
39 | O=C(COc1ccc(Cl)cc1Cl)OCC(=O)c1ccc[nH]1 | inactive
40 | CC(=O)N(C)c1ccc(NC(=S)Nc2ccccc2)cc1 | inactive
41 | CCN(CC)CCN1C(=O)Cn2c(C)c(C)c3cccc1c32 | inconclusive [inhibitor, single point]
42 | Cc1ccc(S(=O)(=O)Nc2ccc(S(=O)(=O)Nc3ncccn3)cc2)cc1 | inactive

Reference: PubChem BioAssay AID624417 (National Center for Advancing Translational Sciences (NCATS), 2012)
